Source: patent EP0745599A2, “1-(3-Heterocyclylphenyl)-s-triazine-2,4,6-oxo or thiotrione herbicidal agents” (American Cyanamid Company, priority 1995, dated 1996)
At least one read-out could not be matched to a standard name with certainty.

What was measured:
Format in all cases: in vivo
Conditions in all cases: rated four to five weeks after treatment
[1] = tested on: GALIUM APARINE; experiment: Preemergence herbicidal evaluation, GALAP (Galium)
Source text: (§1) Results of herbicide evaluation are expressed on a rating scale (0-9). The scale is based upon a visual observation of plant stand, vigor, malformation, size, chlorosis and overall plant appearance as compared with a control.
(§2) The preemergence herbicidal activity of the test compounds of the present invention is exemplified by the following tests in which the seeds of a variety of monocotyledonous and dicotyledonous plants are separately mixed with potting soil and planted on top of approximately one inch of soil in separate pint cups. After planting, the cups are sprayed with the selected aqueous acetone solution containing test compound in sufficient quantity to provide the equivalent of about 0.125 to 0.50 kg per hectare of test compound per cup. The treated cups are then placed on greenhouse benches, watered and cared for in accordance with conventional greenhouse procedures. From four to five weeks after treatment, the tests are terminated and each cup is examined and rated according to the rating system provided in Example 42.

[2] = tested on: ECHINOCHLOA CRUS-GALLI, (L) BEAU; experiment: Postemergence herbicidal evaluation, ECHCG (Barnyardgrass)
Protocol: In the tests, seedling plants are grown in jiffy flats for about two weeks. The test compounds are dispersed in 50/50 acetone/water mixtures containing 0.5% TWEEN®20, a polyoxyethylene sorbitan monolaurate surfactant of Atlas Chemical Industries, in sufficient quantities to provide the equivalent of about 0.125 kg to 0.500 kg per hectare of active compound when applied to the plants through a spray nozzle operating at 40 psi for a predetermined time. After spraying, the plants are placed on greenhouse benches and are cared for in the usual manner, commensurate with conventional greenhouse practices. From four to five weeks after treatment, the seedling plants are examined and rated according to the rating system set forth below. Where more than one test is involved for a given compound, the data are averaged.
as §1

[3] = tested on: ORYZA SATIVA, L. TEBONNET; experiment: Postemergence herbicidal evaluation, ORYSAT (Rice, Tebonnet)
Outline: (§3)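 Visual 0–9 ratings against untreated control, taken four to five weeks post-spray, score stand, vigor, malformation, size, chlorosis and overall appearance. Treatment was a postemergence spray at about 0.125 to 0.500 kg/ha on roughly two-week-old seedlings.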

[4] = tested on: ORYZA SATIVA, L. TEBONNET; experiment: Preemergence herbicidal evaluation, ORYSAT (Rice, Tebonnet)
Source text: as §1, §2

[5] = tested on: ABUTILON THEOPHRASTI, MEDIC.; experiment: Preemergence herbicidal evaluation, ABUTH (Velvetleaf)
Source text: as §1, §2

[6] = tested on: GALIUM APARINE; experiment: Postemergence herbicidal evaluation, GALAP (Galium)
[7] = tested on: SETARIA VIRIDIS, (L) BEAU; experiment: Postemergence herbicidal evaluation, SETVI (Foxtail, Green)
Outline: as §3

[8] = tested on: GLYCINE MAX(L)MERR. CV. WILLIAMS; experiment: Postemergence herbicidal evaluation, GLXMAW (Soybean, Williams)
Outline: as §3

[9] = tested on: TRITICUM AESTIVUM, CV. APOLLO; experiment: Preemergence herbicidal evaluation, TRZAWO (Wheat, Winter, CV. APOLLO)
Source text: as §1, §2

[10] = tested on: ZEA MAYS L.; experiment: Postemergence herbicidal evaluation, ZEAMX (Corn, Field)
Outline: as §3

[11] = tested on: CASSIA OBTUSIFOLIA, L.; experiment: Postemergence herbicidal evaluation, CASOB (Sicklepod)
Outline: as §3

[12] = tested on: CHENOPODIUM ALBUM, L.; experiment: Postemergence herbicidal evaluation, CHEAL (Lambsquarters, Common)
Outline: as §3

[13] = tested on: IPOMOEA SPP.; experiment: Postemergence herbicidal evaluation, IPOSS (Morningglory Spp.)
[14] = tested on: CHENOPODIUM ALBUM, L.; experiment: Preemergence herbicidal evaluation, CHEAL (Lambsquarters, Common)
Source text: as §1, §2

[15] = tested on: TRITICUM AESTIVUM, CV. APOLLO; experiment: Postemergence herbicidal evaluation, TRZAWO (Wheat, Winter, CV. APOLLO)
Outline: as §3

[16] = tested on: ABUTILON THEOPHRASTI, MEDIC.; experiment: Postemergence herbicidal evaluation, ABUTH (Velvetleaf)
Outline: as §3

[17] = tested on: AMBROSIA ARTEMISIIFOLIA, L.; experiment: Postemergence herbicidal evaluation, AMBEL (Ragweed, Common)
Outline: as §3

Q: How did the “Herbicide rating (0-9) GALAP” value ([1]; 0.125 kg/ha) turn out when `Cn1c(=O)n(CC(=O)OC(C)(C)C)c(=O)n(-c2cc(N3C(=O)C4=C(CCCC4)C3=O)c(Cl)cc2Cl)c1=O` [Compound 7, Tert-butyl 3-[2,4-dichloro-5-(1-cyclohexene-1,2-dicarboximido)phenyl]tetrahydro-5-methyl-2,4,6-trioxo-s-triazine-1(2H)-acetate] was run?
A: The value was 0.0.

Q: And the “Herbicide rating (0-9) GALAP” value ([1]; 0.250 kg/ha)?
A: Its value is 3.0.

Q: And the “Herbicide rating (0-9) GALAP” value ([1]; 0.500 kg/ha)?
A: Its value is 5.0.

Q: What about the “Herbicide rating (0-9) ECHCG” value ([2]; 0.125 kg/ha) of the same compound?
A: Its value is 0.0.

Q: And the “Herbicide rating (0-9) ECHCG” value ([2]; 0.250 kg/ha)?
A: The value was 1.0.

Q: What about the “Herbicide rating (0-9) ECHCG” value ([2]; 0.500 kg/ha) of the same compound?
A: Its value is 1.0.

Q: What about the “Herbicide rating (0-9) ORYSAT” value ([3]; 0.125 kg/ha) of the same compound?
A: The value was 2.3.

Q: What about the “Herbicide rating (0-9) ORYSAT” value ([3]; 0.250 kg/ha) of the same compound?
A: The value was 3.0.

Q: And the “Herbicide rating (0-9) ORYSAT” value ([3]; 0.500 kg/ha)?
A: Its value is 3.0.

Q: What about the “Herbicide rating (0-9) ORYSAT” value ([4]; 0.125 kg/ha) of the same compound?
A: The value was 1.0.

Q: What about the “Herbicide rating (0-9) ORYSAT” value ([4]; 0.250 kg/ha) of the same compound?
A: Its value is 3.0.

Q: And the “Herbicide rating (0-9) ORYSAT” value ([4]; 0.500 kg/ha)?
A: Its value is 5.0.

Q: What about the “Herbicide rating (0-9) ABUTH” value ([5]; 0.125 kg/ha) of the same compound?
A: The value was 0.0.

Q: And the “Herbicide rating (0-9) ABUTH” value ([5]; 0.250 kg/ha)?
A: The value was 2.0.

Q: What about the “Herbicide rating (0-9) ABUTH” value ([5]; 0.500 kg/ha) of the same compound?
A: The value was 3.0.

Q: What about the “Herbicide rating (0-9) GALAP” value ([6]; 0.125 kg/ha) of the same compound?
A: The value was 2.5.

Q: What about the “Herbicide rating (0-9) GALAP” value ([6]; 0.250 kg/ha) of the same compound?
A: The value was 4.5.

Q: And the “Herbicide rating (0-9) GALAP” value ([6]; 0.500 kg/ha)?
A: The value was 6.0.

Q: What about the “Herbicide rating (0-9) SETVI” value ([7]; 0.125 kg/ha) of the same compound?
A: The value was 0.0.

Q: What about the “Herbicide rating (0-9) SETVI” value ([7]; 0.250 kg/ha) of the same compound?
A: Its value is 1.0.

Q: What about the “Herbicide rating (0-9) SETVI” value ([7]; 0.500 kg/ha) of the same compound?
A: The value was 1.0.

Q: What about the “Herbicide rating (0-9) GLXMAW” value ([8]; 0.125 kg/ha) of the same compound?
A: Its value is 4.5.

Q: What about the “Herbicide rating (0-9) GLXMAW” value ([8]; 0.250 kg/ha) of the same compound?
A: The value was 5.0.

Q: And the “Herbicide rating (0-9) GLXMAW” value ([8]; 0.500 kg/ha)?
A: The value was 5.0.

Q: What about the “Herbicide rating (0-9) TRZAWO” value ([9]; 0.125 kg/ha) of the same compound?
A: Its value is 0.0.

Q: And the “Herbicide rating (0-9) TRZAWO” value ([9]; 0.250 kg/ha)?
A: Its value is 1.0.

Q: What about the “Herbicide rating (0-9) TRZAWO” value ([9]; 0.500 kg/ha) of the same compound?
A: The value was 2.0.

Q: And the “Herbicide rating (0-9) ZEAMX” value ([10]; 0.125 kg/ha)?
A: The value was 3.8.

Q: What about the “Herbicide rating (0-9) ZEAMX” value ([10]; 0.250 kg/ha) of the same compound?
A: Its value is 4.8.

Q: What about the “Herbicide rating (0-9) ZEAMX” value ([10]; 0.500 kg/ha) of the same compound?
A: The value was 4.8.

Q: And the “Herbicide rating (0-9) CASOB” value ([11]; 0.125 kg/ha)?
A: The value was 5.0.

Q: What about the “Herbicide rating (0-9) CASOB” value ([11]; 0.250 kg/ha) of the same compound?
A: Its value is 6.0.

Q: What about the “Herbicide rating (0-9) CASOB” value ([11]; 0.500 kg/ha) of the same compound?
A: The value was 6.0.

Q: What about the “Herbicide rating (0-9) CHEAL” value ([12]; 0.125 kg/ha) of the same compound?
A: The value was 7.0.

Q: And the “Herbicide rating (0-9) CHEAL” value ([12]; 0.250 kg/ha)?
A: The value was 8.0.

Q: What about the “Herbicide rating (0-9) CHEAL” value ([12]; 0.500 kg/ha) of the same compound?
A: Its value is 8.0.

Q: What about the “Herbicide rating (0-9) IPOSS” value ([13]; 0.125 kg/ha) of the same compound?
A: Its value is 5.5.

Q: What about the “Herbicide rating (0-9) IPOSS” value ([13]; 0.250 kg/ha) of the same compound?
A: The value was 6.0.

Q: And the “Herbicide rating (0-9) IPOSS” value ([13]; 0.500 kg/ha)?
A: The value was 7.0.

Q: What about the “Herbicide rating (0-9) CHEAL” value ([14]; 0.125 kg/ha) of the same compound?
A: The value was 5.0.

Q: What about the “Herbicide rating (0-9) CHEAL” value ([14]; 0.250 kg/ha) of the same compound?
A: The value was 8.0.

Q: And the “Herbicide rating (0-9) CHEAL” value ([14]; 0.500 kg/ha)?
A: Its value is 8.0.

Q: And the “Herbicide rating (0-9) TRZAWO” value ([15]; 0.125 kg/ha)?
A: Its value is 2.5.

Q: What about the “Herbicide rating (0-9) TRZAWO” value ([15]; 0.250 kg/ha) of the same compound?
A: The value was 2.5.

Q: What about the “Herbicide rating (0-9) TRZAWO” value ([15]; 0.500 kg/ha) of the same compound?
A: Its value is 3.3.

Q: And the “Herbicide rating (0-9) ABUTH” value ([16]; 0.125 kg/ha)?
A: Its value is 7.0.

Q: What about the “Herbicide rating (0-9) ABUTH” value ([16]; 0.250 kg/ha) of the same compound?
A: Its value is 9.0.

Q: And the “Herbicide rating (0-9) ABUTH” value ([16]; 0.500 kg/ha)?
A: Its value is 7.5.

Q: And the “Herbicide rating (0-9) AMBEL” value ([17]; 0.125 kg/ha)?
A: Its value is 6.0.

Q: And the “Herbicide rating (0-9) AMBEL” value ([17]; 0.250 kg/ha)?
A: Its value is 7.5.

Q: And the “Herbicide rating (0-9) AMBEL” value ([17]; 0.500 kg/ha)?
A: Its value is 7.5.
